{"source": "the supplement of paper PMC8728848", "binders": {"B1": {"name": "PA-IL (Pseudomonas aeruginosa), Q05097 (protein)", "chain": "MAWKGEVLANNEAGQVTSIIYNPGDVITIVAAGWASYGPTQKWGPQGDREHPDQGLICHDAFCGALVMKIGNSGTIPVNTGLFRWVAPNNVQGAITLIYNDVPGTYGNNSGSFSVNIGKDQS"}}, "test_in_all_cases": "glycan array binding signal (z-score within array); higher = stronger binding", "conditions_in_all_cases": "glycan notation: IUPAC condensed, linker removed", "key": {"[1]": {"biological_target": "GalNAc(b1-4)Gal(b1-4)Glc", "outline": "(§1)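 Columns mapping to the same glycan were averaged after glycan names were converted to IUPAC-condensed notation. The data come from 3228 arrays in the Consortium for Functional Glycomics database, limited to those with an available protein sequence. Binding is reported as a within-array Z-score averaged across arrays of one protein sequence and across linkers.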"}, "[2]": {"biological_target": "GalNAc(b1-4)GlcNAc", "outline": "as §1"}, "[3]": {"biological_target": "GalNAc(b1-4)GlcNAc(b1-2)Man", "outline": "as §1"}, "[4]": {"biological_target": "GalNAc(b1-4)GlcNAc(b1-2)Man(a1-3)[GalNAc(b1-4)GlcNAc(b1-2)Man(a1-6)]Man(b1-4)GlcNAc(b1-4)GlcNAc", "outline": "as §1"}, "[5]": {"biological_target": "GalNAc(b1-4)GlcNAc(b1-3)GalNAc(b1-4)GlcNAc", "outline": "as §1"}, "[6]": {"biological_target": "GalNAc(b1-4)GlcNAc6S", "outline": "as §1"}, "[7]": {"biological_target": "GalNAc(b1-6)GalNAc", "outline": "as §1"}, "[8]": {"biological_target": "GalNAc3S(b1-4)GlcNAc", "outline": "as §1"}, "[9]": {"biological_target": "GalNAc3S(b1-4)GlcNAc3S", "outline": "as §1"}, "[10]": {"biological_target": "GalNAc3S(b1-4)[Fuc(a1-3)]GlcNAc", "outline": "as §1"}, "[11]": {"biological_target": "GalNAc4S6S(b1-4)GlcNAc", "outline": "as §1"}, "[12]": {"biological_target": "GalNAc6S(b1-4)GlcNAc", "outline": "as §1"}, "[13]": {"biological_target": "Glc(a1-4)Glc", "outline": "as §1"}, "[14]": {"biological_target": "Glc(a1-4)Glc(a1-4)Glc(a1-4)Glc", "outline": "as §1"}, "[15]": {"biological_target": "Glc(a1-6)Glc(a1-6)Glc", "outline": "as §1"}, "[16]": {"biological_target": "Glc(a1-6)Glc(a1-6)Glc(a1-6)Glc", "outline": "as §1"}, "[17]": {"biological_target": "Glc(b1-4)Glc", "outline": "as §1"}, "[18]": {"biological_target": "Glc(b1-6)Glc", "outline": "as §1"}, "[19]": {"biological_target": "GlcA(b1-3)Gal", "outline": "as §1"}, "[20]": {"biological_target": "GlcA(b1-3)GlcNAc", "outline": "as §1"}, "[21]": {"biological_target": "GlcA(b1-6)Gal", "outline": "as §1"}, "[22]": {"biological_target": "GlcA3S(b1-3)Gal(b1-4)GlcNAc(b1-2)Man", "outline": "as §1"}, "[23]": {"biological_target": "GlcA3S(b1-3)Gal(b1-4)GlcNAc(b1-3)Gal(b1-4)Glc", "outline": "as §1"}, "[24]": {"biological_target": "GlcNAc(a1-3)Gal(b1-4)GlcNAc", "outline": "as §1"}, "[25]": {"biological_target": "GlcNAc(a1-4)Gal(b1-3)GlcNAc", "outline": "as §1"}, "[26]": {"biological_target": "GlcNAc(a1-4)Gal(b1-4)GalNAc", "outline": "as §1"}, "[27]": {"biological_target": "GlcNAc(a1-4)Gal(b1-4)GlcNAc", "outline": "as §1"}, "[28]": {"biological_target": "GlcNAc(a1-4)Gal(b1-4)GlcNAc(b1-3)Gal(b1-4)Glc", "outline": "as §1"}, "[29]": {"biological_target": "GlcNAc(a1-4)Gal(b1-4)GlcNAc(b1-3)Gal(b1-4)GlcNAc", "outline": "as §1"}, "[30]": {"biological_target": "GlcNAc(a1-4)Gal(b1-4)GlcNAc(b1-3)Gal(b1-4)GlcNAc(b1-3)Gal(b1-4)GlcNAc", "outline": "as §1"}, "[31]": {"biological_target": "GlcNAc(a1-4)Gal(b1-4)GlcNAc(b1-3)Gal(b1-4)[Fuc(a1-3)]GlcNAc(b1-3)Gal(b1-4)[Fuc(a1-3)]GlcNAc", "outline": "as §1"}, "[32]": {"biological_target": "GlcNAc(a1-6)Gal(b1-4)GlcNAc", "outline": "as §1"}, "[33]": {"biological_target": "GlcNAc(b1-2)Gal(b1-3)GalNAc", "outline": "as §1"}, "[34]": {"biological_target": "GlcNAc(b1-2)Man(a1-3)[GlcNAc(b1-2)Man(a1-6)]Man(b1-4)GlcNAc(b1-4)GlcNAc", "outline": "as §1"}, "[35]": {"biological_target": "GlcNAc(b1-2)Man(a1-3)[GlcNAc(b1-2)Man(a1-6)]Man(b1-4)GlcNAc(b1-4)[Fuc(a1-6)]GlcNAc", "outline": "as §1"}, "[36]": {"biological_target": "GlcNAc(b1-2)Man(a1-3)[GlcNAc(b1-4)][GlcNAc(b1-2)Man(a1-6)]Man(b1-4)GlcNAc(b1-4)GlcNAc", "outline": "as §1"}, "[37]": {"biological_target": "GlcNAc(b1-2)Man(a1-3)[GlcNAc(b1-4)][GlcNAc(b1-2)Man(a1-6)]Man(b1-4)GlcNAc(b1-4)[Fuc(a1-6)]GlcNAc", "outline": "as §1"}, "[38]": {"biological_target": "GlcNAc(b1-2)[GlcNAc(b1-4)]Man(a1-3)[GlcNAc(b1-2)Man(a1-6)]Man(b1-4)GlcNAc(b1-4)GlcNAc", "outline": "as §1"}, "[39]": {"biological_target": "GlcNAc(b1-2)[GlcNAc(b1-4)]Man(a1-3)[GlcNAc(b1-4)][GlcNAc(b1-2)Man(a1-6)]Man(b1-4)GlcNAc(b1-4)GlcNAc", "outline": "as §1"}, "[40]": {"biological_target": "GlcNAc(b1-2)[GlcNAc(b1-4)]Man(a1-3)[GlcNAc(b1-4)][GlcNAc(b1-2)[GlcNAc(b1-6)]Man(a1-6)]Man(b1-4)GlcNAc(b1-4)GlcNAc", "outline": "as §1"}, "[41]": {"biological_target": "GlcNAc(b1-2)[GlcNAc(b1-4)]Man(a1-3)[GlcNAc(b1-4)][GlcNAc(b1-2)[GlcNAc(b1-6)]Man(a1-6)]Man(b1-4)GlcNAc(b1-4)[Fuc(a1-6)]GlcNAc", "outline": "as §1"}, "[42]": {"biological_target": "GlcNAc(b1-2)[GlcNAc(b1-6)]Man(a1-6)[GlcNAc(b1-2)Man(a1-3)]Man(b1-4)GlcNAc(b1-4)GlcNAc", "outline": "as §1"}, "[43]": {"biological_target": "GlcNAc(b1-2)[GlcNAc(b1-6)]Man(a1-6)[GlcNAc(b1-2)Man(a1-3)]Man(b1-4)GlcNAc(b1-4)[Fuc(a1-6)]GlcNAc", "outline": "as §1"}, "[44]": {"biological_target": "GlcNAc(b1-2)[GlcNAc(b1-6)]Man(a1-6)[GlcNAc(b1-2)Man(a1-3)][GlcNAc(b1-4)]Man(b1-4)GlcNAc(b1-4)GlcNAc", "outline": "as §1"}, "[45]": {"biological_target": "GlcNAc(b1-2)[GlcNAc(b1-6)]Man(a1-6)[GlcNAc(b1-4)][GlcNAc(b1-2)Man(a1-3)]Man(b1-4)GlcNAc(b1-4)GlcNAc", "outline": "as §1"}}, "note": "The other results are listed elsewhere or left out."}
{"binder": "B1", "values": [{"measurement": "glycan array binding signal (z-score)", "setting": "[1]", "result": -0.227}, {"measurement": "glycan array binding signal (z-score)", "setting": "[2]", "result": -0.236}, {"measurement": "glycan array binding signal (z-score)", "setting": "[3]", "result": -0.237}, {"measurement": "glycan array binding signal (z-score)", "setting": "[4]", "result": -0.129}, {"measurement": "glycan array binding signal (z-score)", "setting": "[5]", "result": -0.247}, {"measurement": "glycan array binding signal (z-score)", "setting": "[6]", "result": -0.229}, {"measurement": "glycan array binding signal (z-score)", "setting": "[7]", "result": -0.227}, {"measurement": "glycan array binding signal (z-score)", "setting": "[8]", "result": -0.245}, {"measurement": "glycan array binding signal (z-score)", "setting": "[9]", "result": -0.228}, {"measurement": "glycan array binding signal (z-score)", "setting": "[10]", "result": -0.216}, {"measurement": "glycan array binding signal (z-score)", "setting": "[11]", "result": -0.233}, {"measurement": "glycan array binding signal (z-score)", "setting": "[12]", "result": -0.226}, {"measurement": "glycan array binding signal (z-score)", "setting": "[13]", "result": -0.216}, {"measurement": "glycan array binding signal (z-score)", "setting": "[14]", "result": -0.204}, {"measurement": "glycan array binding signal (z-score)", "setting": "[15]", "result": -0.232}, {"measurement": "glycan array binding signal (z-score)", "setting": "[16]", "result": -0.221}, {"measurement": "glycan array binding signal (z-score)", "setting": "[17]", "result": -0.225}, {"measurement": "glycan array binding signal (z-score)", "setting": "[18]", "result": -0.224}, {"measurement": "glycan array binding signal (z-score)", "setting": "[19]", "result": -0.219}, {"measurement": "glycan array binding signal (z-score)", "setting": "[20]", "result": -0.228}, {"measurement": "glycan array binding signal (z-score)", "setting": "[21]", "result": -0.2}, {"measurement": "glycan array binding signal (z-score)", "setting": "[22]", "result": -0.232}, {"measurement": "glycan array binding signal (z-score)", "setting": "[23]", "result": -0.239}, {"measurement": "glycan array binding signal (z-score)", "setting": "[24]", "result": -0.221}, {"measurement": "glycan array binding signal (z-score)", "setting": "[25]", "result": -0.233}, {"measurement": "glycan array binding signal (z-score)", "setting": "[26]", "result": -0.225}, {"measurement": "glycan array binding signal (z-score)", "setting": "[27]", "result": -0.226}, {"measurement": "glycan array binding signal (z-score)", "setting": "[28]", "result": -0.23}, {"measurement": "glycan array binding signal (z-score)", "setting": "[29]", "result": -0.221}, {"measurement": "glycan array binding signal (z-score)", "setting": "[30]", "result": -0.223}, {"measurement": "glycan array binding signal (z-score)", "setting": "[31]", "result": -0.203}, {"measurement": "glycan array binding signal (z-score)", "setting": "[32]", "result": -0.219}, {"measurement": "glycan array binding signal (z-score)", "setting": "[33]", "result": -0.23}, {"measurement": "glycan array binding signal (z-score)", "setting": "[34]", "result": -0.234}, {"measurement": "glycan array binding signal (z-score)", "setting": "[35]", "result": -0.214}, {"measurement": "glycan array binding signal (z-score)", "setting": "[36]", "result": -0.249}, {"measurement": "glycan array binding signal (z-score)", "setting": "[37]", "result": -0.239}, {"measurement": "glycan array binding signal (z-score)", "setting": "[38]", "result": -0.23}, {"measurement": "glycan array binding signal (z-score)", "setting": "[39]", "result": -0.229}, {"measurement": "glycan array binding signal (z-score)", "setting": "[40]", "result": -0.245}, {"measurement": "glycan array binding signal (z-score)", "setting": "[41]", "result": -0.244}, {"measurement": "glycan array binding signal (z-score)", "setting": "[42]", "result": -0.232}, {"measurement": "glycan array binding signal (z-score)", "setting": "[43]", "result": -0.217}, {"measurement": "glycan array binding signal (z-score)", "setting": "[44]", "result": -0.233}, {"measurement": "glycan array binding signal (z-score)", "setting": "[45]", "result": -0.253}]}
